For eleven molecules, binding results are on record in publication PMC7311467.

Amino acid sequences for entries named in this document (tags omitted). A change or cut given only in a name is not applied to a line headed by its entry. Chains listed by the source or under a name are the forms on record and can include a tag or linker.
UniProt Q9BQ15: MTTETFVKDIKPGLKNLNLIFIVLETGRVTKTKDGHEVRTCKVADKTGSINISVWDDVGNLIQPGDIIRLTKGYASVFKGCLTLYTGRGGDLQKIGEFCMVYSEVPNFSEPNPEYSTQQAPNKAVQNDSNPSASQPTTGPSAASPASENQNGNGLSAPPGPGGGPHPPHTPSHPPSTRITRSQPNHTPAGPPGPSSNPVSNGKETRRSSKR
UniProt O75928: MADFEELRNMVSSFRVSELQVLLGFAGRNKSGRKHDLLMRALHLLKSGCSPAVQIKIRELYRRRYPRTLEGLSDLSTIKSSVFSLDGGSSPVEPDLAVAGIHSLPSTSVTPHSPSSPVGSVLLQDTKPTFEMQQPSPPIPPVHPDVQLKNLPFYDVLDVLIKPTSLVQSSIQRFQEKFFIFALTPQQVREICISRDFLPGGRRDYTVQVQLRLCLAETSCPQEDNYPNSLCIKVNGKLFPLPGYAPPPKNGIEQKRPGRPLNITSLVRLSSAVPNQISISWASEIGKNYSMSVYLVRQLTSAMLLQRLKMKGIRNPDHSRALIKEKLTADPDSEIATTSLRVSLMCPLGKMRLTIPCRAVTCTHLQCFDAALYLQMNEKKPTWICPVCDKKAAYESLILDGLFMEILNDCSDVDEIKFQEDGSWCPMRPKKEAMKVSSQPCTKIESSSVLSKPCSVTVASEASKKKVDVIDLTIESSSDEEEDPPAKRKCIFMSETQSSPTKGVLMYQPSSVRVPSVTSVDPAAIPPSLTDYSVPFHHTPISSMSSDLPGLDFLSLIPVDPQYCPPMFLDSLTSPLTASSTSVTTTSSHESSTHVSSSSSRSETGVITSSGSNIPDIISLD
3MYC-PIAS2α (O75928-2, form named): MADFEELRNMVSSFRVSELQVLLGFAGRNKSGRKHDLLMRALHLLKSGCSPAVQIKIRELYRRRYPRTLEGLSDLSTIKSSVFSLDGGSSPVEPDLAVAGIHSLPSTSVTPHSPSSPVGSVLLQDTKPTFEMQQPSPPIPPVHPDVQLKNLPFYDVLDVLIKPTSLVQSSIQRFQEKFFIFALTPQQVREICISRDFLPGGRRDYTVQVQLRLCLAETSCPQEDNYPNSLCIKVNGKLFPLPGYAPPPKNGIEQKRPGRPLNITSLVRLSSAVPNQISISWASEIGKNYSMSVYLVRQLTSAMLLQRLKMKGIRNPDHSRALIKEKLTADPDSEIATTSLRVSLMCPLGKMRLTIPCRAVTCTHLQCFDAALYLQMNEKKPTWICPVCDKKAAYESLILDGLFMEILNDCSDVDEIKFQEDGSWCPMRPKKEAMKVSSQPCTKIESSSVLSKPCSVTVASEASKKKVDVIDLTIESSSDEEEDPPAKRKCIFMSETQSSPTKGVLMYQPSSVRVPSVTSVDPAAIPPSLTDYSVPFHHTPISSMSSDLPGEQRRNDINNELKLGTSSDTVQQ
UniProt O75925: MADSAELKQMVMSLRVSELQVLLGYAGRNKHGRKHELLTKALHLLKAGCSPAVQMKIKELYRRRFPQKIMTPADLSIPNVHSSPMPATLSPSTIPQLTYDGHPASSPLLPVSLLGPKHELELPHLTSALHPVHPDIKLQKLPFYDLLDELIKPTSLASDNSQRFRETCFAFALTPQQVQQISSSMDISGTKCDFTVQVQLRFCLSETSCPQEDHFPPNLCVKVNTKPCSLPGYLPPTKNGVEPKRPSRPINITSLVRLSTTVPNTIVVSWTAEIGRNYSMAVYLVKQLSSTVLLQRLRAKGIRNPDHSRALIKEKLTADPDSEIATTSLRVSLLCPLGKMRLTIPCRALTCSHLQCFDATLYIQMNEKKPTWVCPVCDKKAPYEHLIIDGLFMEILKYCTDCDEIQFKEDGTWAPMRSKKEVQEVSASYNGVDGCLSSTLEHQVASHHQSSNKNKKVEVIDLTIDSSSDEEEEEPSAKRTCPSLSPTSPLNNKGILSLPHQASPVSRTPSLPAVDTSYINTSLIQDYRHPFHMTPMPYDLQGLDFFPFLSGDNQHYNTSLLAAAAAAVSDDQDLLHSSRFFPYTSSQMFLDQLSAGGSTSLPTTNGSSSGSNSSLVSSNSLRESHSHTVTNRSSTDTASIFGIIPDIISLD
UniProt Q9H4L4: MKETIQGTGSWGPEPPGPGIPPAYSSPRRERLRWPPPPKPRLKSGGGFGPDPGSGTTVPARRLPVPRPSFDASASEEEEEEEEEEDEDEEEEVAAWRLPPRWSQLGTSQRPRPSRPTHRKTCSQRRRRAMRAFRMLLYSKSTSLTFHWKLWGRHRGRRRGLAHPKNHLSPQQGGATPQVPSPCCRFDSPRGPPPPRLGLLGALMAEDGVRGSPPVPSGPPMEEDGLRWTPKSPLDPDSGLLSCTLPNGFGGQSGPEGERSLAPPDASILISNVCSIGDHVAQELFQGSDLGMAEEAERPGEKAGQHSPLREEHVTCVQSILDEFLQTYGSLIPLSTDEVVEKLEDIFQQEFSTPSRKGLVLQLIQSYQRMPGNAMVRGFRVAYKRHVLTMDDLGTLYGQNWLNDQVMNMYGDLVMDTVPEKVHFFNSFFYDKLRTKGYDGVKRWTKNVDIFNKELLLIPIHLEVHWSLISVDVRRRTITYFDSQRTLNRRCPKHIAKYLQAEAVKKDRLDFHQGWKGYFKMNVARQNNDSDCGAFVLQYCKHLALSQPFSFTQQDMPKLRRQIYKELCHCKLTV

Read-outs that look alike come from different tables or passages of the source. These are yes or no findings as the source states them, for the method shown. Binding seen in cells or lysates may run through a third protein. Some entries that bind do so weakly or less than the wild type. For part of these data: Sequences can lack the tags named with a protein.

Assay [1] deals with FLAG-hSSB1 (human single-stranded DNA-binding protein 1), wild type (human) (UniProt Q9BQ15). Put plainly: co-IP; HEK293T co-transfected for 48 h, RIPA lysate, anti-FLAG-agarose overnight at 4 °C, five washes with RIPA, western blot.
Assay [2] addresses hSSB1, endogenous (human (endogenous in HEK293T)) (UniProt Q9BQ15). Put plainly: co-IP; endogenous proteins: HEK293T RIPA lysate, anti-hSSB1 antibody (IgG as control) 2 h at 4 °C, protein A/G-agarose overnight, four washes with RIPA, western blot. For orientation: In western blotting, separated proteins are transferred to a membrane and probed.
The target of assay [3] is 3MYC-PIAS2α (UniProt O75928). As to the kind of experiment: co-IP; reciprocal IP: HEK293T co-transfected for 48 h, RIPA lysate, anti-MYC-agarose overnight at 4 °C, five washes with RIPA, western blot.
Assay [4] deals with T1, 3MYC-SENP2 (UniProt Q9HC62).
T1 sequence: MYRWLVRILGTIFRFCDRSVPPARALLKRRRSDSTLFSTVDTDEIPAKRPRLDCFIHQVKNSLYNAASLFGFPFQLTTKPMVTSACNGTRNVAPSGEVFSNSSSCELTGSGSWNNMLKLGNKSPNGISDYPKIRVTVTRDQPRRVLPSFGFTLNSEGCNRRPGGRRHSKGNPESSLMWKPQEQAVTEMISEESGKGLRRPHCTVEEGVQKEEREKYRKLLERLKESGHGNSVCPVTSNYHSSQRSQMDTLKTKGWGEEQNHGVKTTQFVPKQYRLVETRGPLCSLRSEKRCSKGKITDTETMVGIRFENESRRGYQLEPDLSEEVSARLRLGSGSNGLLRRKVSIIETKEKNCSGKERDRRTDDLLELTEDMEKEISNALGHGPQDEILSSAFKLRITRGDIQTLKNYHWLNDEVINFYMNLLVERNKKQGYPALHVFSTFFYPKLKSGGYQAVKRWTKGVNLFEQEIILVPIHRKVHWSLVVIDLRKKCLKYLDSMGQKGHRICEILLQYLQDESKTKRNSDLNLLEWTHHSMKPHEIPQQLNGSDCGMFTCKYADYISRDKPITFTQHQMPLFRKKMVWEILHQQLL
The description is as above.

The target in assay [5] is FLAG-hSSB1 (human single-stranded DNA-binding protein 1), wild type (human) (UniProt Q9BQ15). As to the kind of experiment: co-IP; HEK293T co-transfected for 48 h, RIPA lysate, anti-FLAG-agarose overnight at 4 °C, five washes with RIPA, western blot. The source holds these as a separate data set.

Turning to “3MYC-PIAS2α (from UniProt O75928-2 1-572) (enzyme)”, in assay [1], the binding entry is “binds”. On the same count and under the same terms, the result for “PIAS1 (from UniProt O75925 1-651) (enzyme)” reads “no binding”; that for “SENP3 (from UniProt Q9H4L4 1-574) (enzyme)”, “no binding”. As for “PIAS2, endogenous (from UniProt O75928 1-621) (enzyme)”, the binding result in assay [2] was “binds”. On to “FLAG-hSSB1 (human single-stranded DNA-binding protein 1), wild type (from UniProt Q9BQ15 1-211)”, for which the binding entry in assay [3] and in assay [4] was “binds” in each case.

B1: PIAS3 (enzyme, UniProt Q9Y6X2 1-628)
chain: MAELGELKHMVMSFRVSELQVLLGFAGRNKSGRKHELLAKALHLLKSSCAPSVQMKIKELYRRRFPRKTLGPSDLSLLSLPPGTSPVGSPGPLAPIPPTLLAPGTLLGPKREVDMHPPLPQPVHPDVTMKPLPFYEVYGELIRPTTLASTSSQRFEEAHFTFALTPQQVQQILTSREVLPGAKCDYTIQVQLRFCLCETSCPQEDYFPPNLFVKVNGKLCPLPGYLPPTKNGAEPKRPSRPINITPLARLSATVPNTIVVNWSSEFGRNYSLSVYLVRQLTAGTLLQKLRAKGIRNPDHSRALIKEKLTADPDSEVATTSLRVSLMCPLGKMRLTVPCRALTCAHLQSFDAALYLQMNEKKPTWTCPVCDKKAPYESLIIDGLFMEILSSCSDCDEIQFMEDGSWCPMKPKKEASEVCPPPGYGLDGLQYSPVQGGDPSENKKKVEVIDLTIESSSDEEDLPPTKKHCSVTSAAIPALPGSKGVLTSGHQPSSVLRSPAMGTLGGDFLSSLPLHEYPPAFPLGADIQGLDLFSFLQTESQHYGPSVITSLDEQDALGHFFQYRGTPSHFLGPLAPTLGSSHCSATPAPPPGRVSSIVAPGGALREGHGGPLPSGPSLTGCRSDIISLD
On to B1, for which, in assay [5], the binding entry is reported as “no binding”.

B2: PIAS4 (enzyme, UniProt Q8N2W9 1-510)
chain: MAAELVEAKNMVMSFRVSDLQMLLGFVGRSKSGLKHELVTRALQLVQFDCSPELFKKIKELYETRYAKKNSEPAPQPHRPLDPLTMHSTYDRAGAVPRTPLAGPNIDYPVLYGKYLNGLGRLPAKTLKPEVRLVKLPFFNMLDELLKPTELVPQNNEKLQESPCIFALTPRQVELIRNSRELQPGVKAVQVVLRICYSDTSCPQEDQYPPNIAVKVNHSYCSVPGYYPSNKPGVEPKRPCRPINLTHLMYLSSATNRITVTWGNYGKSYSVALYLVRQLTSSELLQRLKTIGVKHPELCKALVKEKLRLDPDSEIATTGVRVSLICPLVKMRLSVPCRAETCAHLQCFDAVFYLQMNEKKPTWMCPVCDKPAPYDQLIIDGLLSKILSECEDADEIEYLVDGSWCPIRAEKERSCSPQGAILVLGPSDANGLLPAPSVNGSGALGSTGGGGPVGSMENGKPGADVVDLTLDSSSSSEDEEEEEEEEEDEDEEGPRPKRRCPFQKGLVPAC
For B2, in assay [5], the binding result is “no binding”.

B3: 3MYC-SENP2 (enzyme, UniProt Q9HC62 1-589)
chain: T1 sequence
As for B3, the binding entry in assay [5] is recorded as “binds”.

B4: SENP5 (enzyme, UniProt Q96HI0 1-755)
chain: MKKQRKILWRKGIHLAFSEKWNTGFGGFKKFYFHQHLCILKAKLGRPVTWNRQLRHFQGRKKALQIQKTWIKDEPLCAKTKFNVATQNVSTLSSKVKRKDAKHFISSSKTLLRLQAEKLLSSAKNSDHEYCREKNLLKAVTDFPSNSALGQANGHRPRTDPQPSDFPMKFNGESQSPGESGTIVVTLNNHKRKGFCYGCCQGPEHHRNGGPLIPKKFQLNQHRRIKLSPLMMYEKLSMIRFRYRILRSQHFRTKSKVCKLRKAQRSWVQKVTGDHQETRRENGEGGSCSPFPSPEPKDPSCRHQPYFPDMDSSAVVKGTNSHVPDCHTKGSSFLGKELSLDEAFPDQQNGSATNAWDQSSCSSPKWECTELIHDIPLPEHRSNTMFISETEREIMTLGQENQTSSVSDDRVKLSVSGADTSVSSVDGPVSQKAVQNENSYQMEEDGSLKQSILSSELLDHPYCKSPLEAPLVCSGLKLENQVGGGKNSQKASPVDDEQLSVCLSGFLDEVMKKYGSLVPLSEKEVLGRLKDVFNEDFSNRKPFINREITNYRARHQKCNFRIFYNKHMLDMDDLATLDGQNWLNDQVINMYGELIMDAVPDKVHFFNSFFHRQLVTKGYNGVKRWTKKVDLFKKSLLLIPIHLEVHWSLITVTLSNRIISFYDSQGIHFKFCVENIRKYLLTEAREKNRPEFLQGWQTAVTKCIPQQKNDSDCGVFVLQYCKCLALEQPFQFSQEDMPRVRKRIYKELCECRLMD
Turning to B4, in assay [5], the binding entry was “no binding”.

B5: SENP7 (enzyme, UniProt Q9BQF6 1-1050)
chain: MDKRKLGRRPSSSEIITEGKRKKSSSDLSEIRKMLNAKPEDVHVQSPLSKFRSSERWTLPLQWERSLRNKVISLDHKNKKHIRGCPVTSKSSPERQLKVMLTNVLWTDLGRKFRKTLPRNDANLCDANKVQSDSLPSTSVDSLETCQKLEPLRQSLNLSERIPRVILTNVLGTELGRKYIRTPPVTEGSLSDTDNLQSEQLSSSSDGSLESYQNLNPHKSCYLSERGSQRSKTVDDNSAKQTAHNKEKRRKDDGISLLISDTQPEDLNSGSRGCDHLEQESRNKDVKYSDSKVELTLISRKTKRRLRNNLPDSQYCTSLDKSTEQTKKQEDDSTISTEFEKPSENYHQDPKLPEEITTKPTKSDFTKLSSLNSQELTLSNATKSASAGSTTETVENSNSIDIVGISSLVEKDENELNTIEKPILRGHNEGNQSLISAEPIVVSSDEEGPVEHKSSEILKLQSKQDRETTNENESTSESALLELPLITCESVQMSSELCPYNPVMENISSIMPSNEMDLQLDFIFTSVYIGKIKGASKGCVTITKKYIKIPFQVSLNEISLLVDTTHLKRFGLWKSKDDNHSKRSHAILFFWVSSDYLQEIQTQLEHSVLSQQSKSSEFIFLELHNPVSQREELKLKDIMTEISIISGELELSYPLSWVQAFPLFQNLSSKESSFIHYYCVSTCSFPAGVAVAEEMKLKSVSQPSNTDAAKPTYTFLQKQSSGCYSLSITSNPDEEWREVRHTGLVQKLIVYPPPPTKGGLGVTNEDLECLEEGEFLNDVIIDFYLKYLILEKASDELVERSHIFSSFFYKCLTRKENNLTEDNPNLSMAQRRHKRVRTWTRHINIFNKDYIFVPVNESSHWYLAVICFPWLEEAVYEDFPQTVSQQSQAQQSQNDNKTIDNDLRTTSTLSLSAEDSQSTESNMSVPKKMCKRPCILILDSLKAASVQNTVQNLREYLEVEWEVKLKTHRQFSKTNMVDLCPKVPKQDNSSDCGVYLLQYVESFFKDPIVNFELPIHLEKWFPRHVIKTKREDIRELILKLHLQQQKGSSS
Consider B5, for which, in assay [5], the binding result is listed as “no binding”.

B6: SENP6 (enzyme, UniProt Q9GZR1 1-1112)
chain: MAAGKSGGSAGEITFLEALARSESKRDGGFKNNWSFDHEEESEGDTDKDGTNLLSVDEDEDSETSKGKKLNRRSEIVANSSGEFILKTYVRRNKSESFKTLKGNPIGLNMLSNNKKLSENTQNTSLCSGTVVHGRRFHHAHAQIPVVKTAAQSSLDRKERKEYPPHVQKVEINPVRLSRLQGVERIMKKTEESESQVEPEIKRKVQQKRHCSTYQPTPPLSPASKKCLTHLEDLQRNCRQAITLNESTGPLLRTSIHQNSGGQKSQNTGLTTKKFYGNNVEKVPIDIIVNCDDSKHTYLQTNGKVILPGAKIPKITNLKERKTSLSDLNDPIILSSDDDDDNDRTNRRESISPQPADSACSSPAPSTGKVEAALNENTCRAERELRSIPEDSELNTVTLPRKARMKDQFGNSIINTPLKRRKVFSQEPPDALALSCQSSFDSVILNCRSIRVGTLFRLLIEPVIFCLDFIKIQLDEPDHDPVEIILNTSDLTKCEWCNVRKLPVVFLQAIPAVYQKLSIQLQMNKEDKVWNDCKGVNKLTNLEEQYIILIFQNGLDPPANMVFESIINEIGIKNNISNFFAKIPFEEANGRLVACTRTYEESIKGSCGQKENKIKTVSFESKIQLRSKQEFQFFDEEEETGENHTIFIGPVEKLIVYPPPPAKGGISVTNEDLHCLNEGEFLNDVIIDFYLKYLVLEKLKKEDADRIHIFSSFFYKRLNQRERRNHETTNLSIQQKRHGRVKTWTRHVDIFEKDFIFVPLNEAAHWFLAVVCFPGLEKPKYEPNPHYHENAVIQKCSTVEDSCISSSASEMESCSQNSSAKPVIKKMLNKKHCIAVIDSNPGQEESDPRYKRNICSVKYSVKKINHTASENEEFNKGESTSQKVADRTKSENGLQNESLSSTHHTDGLSKIRLNYSDESPEAGKMLEDELVDFSEDQDNQDDSSDDGFLADDNCSSEIGQWHLKPTICKQPCILLMDSLRGPSRSNVVKILREYLEVEWEVKKGSKRSFSKDVMKGSNPKVPQQNNFSDCGVYVLQYVESFFENPILSFELPMNLANWFPPPRMRTKREEIRNIILKLQEDQSKEKRKHKDTYSTEAPLGEGTEQYVNSISD
With B6, the binding result in assay [5] was “no binding”.
